Source: publication PMC10668032
The list shows a part of the results. At the low end of the ranking the order means little.

biological target: SIX1-Q177R homeodomain (UniProt Q15475); test: universal protein binding microarray; conditions: Universal all-10-mer PBM (8x60K, AMADID 030236), 300 nM GST-tagged protein, Alexa Fluor 488 anti-GST; buffer, salt, pH and temperature not stated; high values mean tight binding; most listed sequences are background and not binding sites; double strand, one strand shown

Row | Sequence | binding signal
1 | TGCAGTAA | -0.191 E-score
2 | ACAATGGT | -0.0225 E-score
3 | AATCGTGT | 0.369 E-score
4 | AGCGACTC | 0.0748 E-score
5 | AGCATCGA | -0.163 E-score
6 | AGCTCGTG | 0.244 E-score
7 | AATGTAGT | -0.0425 E-score
8 | CCTTAACC | 0.107 E-score
9 | AAACATGC | -0.216 E-score
10 | AGTATACC | 0.12 E-score
11 | GCCTCACC | -0.106 E-score
12 | AATGCTGG | -0.0701 E-score
13 | GTCGTTCA | -0.0113 E-score
14 | ATAGCCCC | -0.0273 E-score
15 | GCTGGTAA | -0.246 E-score
16 | GAGACTAC | -0.0403 E-score
17 | GATCGTCC | -0.0133 E-score
18 | GTTCGATA | 0.0965 E-score
19 | CGAACATC | -0.0363 E-score
20 | ACATCGCG | 0.0672 E-score
21 | AATAGTGC | -0.13 E-score
22 | ACCCCAAG | 0.2 E-score

Row | Sequence | binding signal
23 | GCTTAGAC | 0.011 E-score
24 | AGATCAAG | -0.0111 E-score
25 | AAGATCTA | -0.166 E-score
26 | CCTTAACA | 0.0951 E-score
27 | CCCTACCG | 0.0488 E-score
28 | CCTGGAAC | 0.0383 E-score
29 | TAACTGAA | -0.0774 E-score
30 | CTCCAGAC | -0.132 E-score
31 | AATGCGTA | -0.036 E-score
32 | AACTGATA | 0.0627 E-score
33 | GTATATGA | 0.142 E-score
34 | AGCGACCT | -0.129 E-score
35 | CGATGCCC | -0.143 E-score
36 | GAGTGCAC | 0.195 E-score
37 | AGCCATTC | -0.152 E-score
38 | AACATCTT | -0.285 E-score
39 | AAGCCGAC | 0.00954 E-score
40 | CTCGCATC | -0.0723 E-score
41 | GATAGGAC | -0.0518 E-score
42 | ATTCAAAA | -0.0783 E-score
43 | TGCTTCAA | -0.12 E-score
44 | ACTTAAAT | -0.12 E-score

Row | Sequence | binding signal
45 | GTGATTAA | 0.042 E-score
46 | CTATCCTA | -0.0172 E-score
47 | CTTTCACA | 0.24 E-score
48 | AGCCAGGA | -0.0177 E-score
49 | CATACTGA | -0.0158 E-score
50 | ATGCCCCC | -0.0488 E-score
51 | ACCTGGAG | 0.222 E-score
52 | ACACTGAT | 0.374 E-score
53 | AGCATAGC | -0.105 E-score
54 | ACCTCAGC | 0.0283 E-score
55 | AACCAGTC | -0.242 E-score
56 | CAAACATG | -0.181 E-score
57 | AGTCGGGG | 0.158 E-score
58 | AATTCCCG | -0.256 E-score
59 | CATAACGA | -0.133 E-score
60 | AAAGGTGA | -0.0568 E-score
61 | AACGGATG | -0.135 E-score
62 | CTATGATC | -0.0315 E-score
63 | GACCGTCA | -0.251 E-score
64 | CCGACTCC | 0.159 E-score
65 | GACTACTA | 0.0519 E-score
66 | AGCTGTTG | -0.101 E-score

Row | Sequence | binding signal
67 | GAAGTATA | -0.195 E-score
68 | CGTATGCC | 0.0278 E-score
69 | ACCAAGGA | -0.0982 E-score
70 | ATGGATGG | -0.0475 E-score
71 | CTACCGGA | -0.105 E-score
72 | ATATTCTA | -0.0462 E-score
73 | ACCGTATC | 0.135 E-score
74 | CCGTCTTA | 0.0204 E-score
75 | ACGCTACG | 0.0666 E-score
76 | AAAGTGTA | 0.36 E-score
77 | GACACTCC | 0.434 E-score
78 | CTTGAATC | -0.076 E-score
79 | TTACTCAA | -0.0971 E-score
80 | ACCGCACG | 0.118 E-score
81 | GGATGACC | 0.00064 E-score
82 | ACATTTGG | -0.0151 E-score
83 | AACTGGAG | -0.131 E-score
84 | GTCCTGAA | -0.0244 E-score
85 | CTCGAGAA | -0.027 E-score
86 | ACACCCCC | 0.487 E-score
